Assay results: the supplement of paper PMC4967469
By IC50 is meant the dose at which the fit gives 50% viability; a fit beyond the top or the lowest dose is shown as a bound at that dose. AUC is the area under the same curve over the 256-fold range up to the top dose, as a fraction; it is 1 without any effect and falls as sensitivity rises. For some of these results: A top dose marked as inferred is not printed in the source and was worked back from the curve model.

Tests used:
Experiment in all cases: Viability of human cancer cell lines after 72 h of drug (GDSC screen)
Etoposide = compound: COc1cc([C@@H]2c3cc4c(cc3[C@@H](O[C@@H]3O[C@@H]5CO[C@@H](C)O[C@H]5[C@H](O)[C@H]3O)[C@H]3COC(=O)[C@H]23)OCO4)cc(OC)c1O [Etoposide]; settings: top dose 16 µM
Description: (§1)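 Human cancer cell lines in 384-well plates, medium with 10% serum, drug for 72 h over a 256-fold dose range (nine 2-fold or five 4-fold steps up to the top dose). Adherent lines were fixed and stained with the nucleic acid dye Syto60, suspension lines read with resazurin; signal relative to control wells, capped at 0 and 100%. One two-parameter sigmoid per drug and line, fitted in a mixed model over all curves with the slope shared within a line.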

YK 4-279 = compound: COc1ccc(C(=O)CC2(O)C(=O)Nc3c(Cl)ccc(Cl)c32)cc1 [YK 4-279]; settings: top dose 10 µM
Description: as §1

XAV 939 = compound: Oc1nc(-c2ccc(C(F)(F)F)cc2)nc2c1CSCC2 [XAV 939]; settings: top dose 5 µM; top dose inferred
Description: as §1

AZD7762 = compound: NC(=O)Nc1cc(-c2cccc(F)c2)sc1C(=O)N[C@H]1CCCNC1 [AZD7762]; settings: top dose 2 µM
Description: as §1

NPK76-II-72-1 = compound: COc1cc(C(=O)NC2CCN(C)CC2)ccc1Nc1ncc2c(n1)N(C1CCCC1)C(C)CC(=O)N2C [NPK76-II-72-1]; settings: top dose 10.24 µM; top dose inferred
Description: as §1

GSK-650394 = compound: O=C(O)c1ccc(-c2c[nH]c3ncc(-c4ccccc4)cc23)cc1C1CCCC1 [GSK-650394]; settings: top dose 16 µM; top dose inferred
Description: as §1

Bexarotene = compound: C=C(c1ccc(C(=O)O)cc1)c1cc2c(cc1C)C(C)(C)CCC2(C)C [Bexarotene]; settings: top dose 8 µM
Description: as §1

BMS-345541 = compound: Cc1ccc2nc(NCCN)c3ncc(C)n3c2c1 [BMS-345541]; settings: top dose 16 µM
Description: as §1

Row | Cell Line | AUC (Etoposide) | IC50 (Etoposide) [µM] | AUC (YK 4-279) | IC50 (YK 4-279) [µM] | AUC (XAV 939) | IC50 (XAV 939) [µM] | AUC (AZD7762) | IC50 (AZD7762) [µM] | AUC (NPK76-II-72-1) | IC50 (NPK76-II-72-1) [µM] | AUC (GSK-650394) | IC50 (GSK-650394) [µM] | AUC (Bexarotene) | IC50 (Bexarotene) [µM] | AUC (BMS-345541) | IC50 (BMS-345541) [µM]
1 | SUP-M2 (anaplastic large cell lymphoma, suspension) | 0.361 | 0.456 | 0.632 | 1.32 | 0.971 | > 5 | 0.417 | 0.0782 | 0.845 | 4.94 | 0.93 | 15.9 | 0.992 | > 8 | 0.902 | 12
2 | SUP-T1 (T-cell lymphoblastic leukaemia, suspension) | 0.453 | 0.756 | 0.872 | 8.06 | 0.973 | > 5 | 0.866 | 1.52 | 0.534 | 0.787 | 0.946 | > 16 | 0.955 | > 8 | 0.658 | 2.62
3 | SW684 (fibrosarcoma, adherent) | 0.884 | > 16 | 0.879 | > 10 | 0.98 | > 5 | 0.976 | > 2 | 0.983 | > 10.2 | 0.982 | > 16 | 0.981 | > 8 | 0.979 | > 16
4 | SW756 (cervix, adherent) | 0.676 | 3.43 | 0.717 | 2.92 | 0.967 | > 5 | 0.35 | 0.044 | 0.984 | > 10.2 | 0.975 | > 16 | 0.906 | > 8 | 0.982 | > 16
5 | SW780 (bladder, adherent) | 0.811 | 9.43 | 0.704 | 2.5 | 0.866 | > 5 | 0.831 | 1.42 | 0.979 | > 10.2 | 0.986 | > 16 | 0.981 | > 8 | 0.942 | > 16
6 | SW962 (urogenital system, adherent) | 0.82 | 12.2 | 0.703 | 2.71 | 0.892 | > 5 | 0.849 | > 2 | 0.912 | > 10.2 | 0.913 | > 16 | 0.865 | > 8 | 0.944 | > 16
7 | SW982 (soft tissue, adherent) | 0.147 | 0.0766 | 0.699 | 2.3 | 0.976 | > 5 | 0.73 | 0.578 | 0.897 | > 10.2 | 0.808 | 8.56 | 0.907 | > 8 | 0.904 | > 16
8 | SW1417 (large intestine, adherent) | 0.986 | > 16 | 0.93 | > 10 | 0.972 | > 5 | 0.761 | 0.826 | 0.981 | > 10.2 | 0.986 | > 16 | 0.954 | > 8 | 0.939 | > 16
9 | SW1710 (bladder, adherent) | 0.364 | 0.415 | 0.696 | 2.26 | 0.958 | > 5 | 0.761 | 0.73 | 0.908 | > 10.2 | 0.567 | 1.53 | 0.952 | > 8 | 0.905 | > 16
10 | SiHa (cervix, adherent) | 0.972 | > 16 | 0.86 | > 10 | 0.931 | > 5 | 0.782 | 0.976 | 0.981 | > 10.2 | 0.987 | > 16 | 0.969 | > 8 | 0.982 | > 16
11 | T98G (glioma, adherent) | 0.831 | 9.11 | 0.627 | 1.36 | 0.98 | > 5 | 0.637 | 0.289 | 0.98 | > 10.2 | 0.948 | > 16 | 0.915 | > 8 | 0.936 | > 16
12 | T-T (oesophagus, adherent) | 0.814 | 8.67 | 0.693 | 2.17 | 0.983 | > 5 | 0.741 | 0.607 | 0.837 | 6.82 | 0.739 | 4.81 | 0.782 | 3.32 | 0.933 | > 16
13 | TE-1 (oesophagus, adherent) | 0.805 | 10.7 | 0.597 | 1.24 | 0.958 | > 5 | 0.821 | 1.57 | 0.977 | > 10.2 | 0.967 | > 16 | 0.92 | > 8 | 0.92 | > 16
14 | TE-5 (oesophagus, adherent) | 0.547 | 1.37 | 0.717 | 2.85 | 0.897 | > 5 | 0.831 | 1.54 | 0.975 | > 10.2 | 0.902 | > 16 | 0.891 | > 8 | 0.918 | > 16
15 | TE-6 (oesophagus, adherent) | 0.906 | > 16 | 0.935 | > 10 | 0.977 | > 5 | 0.922 | > 2 | 0.985 | > 10.2 | 0.978 | > 16 | 0.962 | > 8 | 0.911 | > 16
16 | TE-8 (oesophagus, adherent) | 0.766 | 6.3 | 0.599 | 1.19 | 0.917 | > 5 | 0.826 | 1.33 | 0.924 | > 10.2 | 0.615 | 2.12 | 0.902 | > 8 | 0.88 | > 16
17 | TE-9 (oesophagus, adherent) | 0.212 | 0.137 | 0.612 | 1.28 | 0.979 | > 5 | 0.851 | – | 0.983 | > 10.2 | 0.813 | 9.1 | 0.919 | > 8 | 0.962 | > 16
18 | TE-11 (oesophagus, adherent) | 0.814 | 7.79 | 0.589 | 1.07 | 0.962 | > 5 | 0.77 | 0.695 | 0.989 | > 10.2 | 0.893 | > 16 | 0.974 | > 8 | 0.955 | > 16
19 | TE-12 (oesophagus, suspension) | 0.857 | > 16 | 0.938 | > 10 | 0.972 | > 5 | 0.67 | 0.414 | 0.978 | > 10.2 | 0.614 | 2.2 | 0.859 | > 8 | 0.834 | 13.8
20 | TE-15 (oesophagus, suspension) | 0.551 | 1.4 | 0.894 | > 10 | 0.962 | > 5 | 0.718 | 0.567 | 0.975 | > 10.2 | 0.692 | 3.74 | 0.939 | > 8 | 0.735 | 5.16
21 | TGBC11TKB (stomach, adherent) | 0.962 | > 16 | 0.763 | 3.2 | 0.981 | > 5 | 0.59 | 0.214 | 0.9 | > 10.2 | 0.95 | > 16 | 0.988 | > 8 | 0.931 | > 16
22 | TGW (neuroblastoma, adherent) | 0.937 | > 16 | 0.681 | 1.84 | 0.977 | > 5 | 0.694 | 0.4 | 0.795 | 4.02 | 0.938 | > 16 | 0.992 | > 8 | 0.871 | 11.6
23 | TK (B-cell lymphoma, suspension) | 0.798 | 6.87 | 0.479 | 0.552 | 0.988 | > 5 | 0.475 | 0.107 | 0.64 | 1.5 | 0.983 | > 16 | 0.976 | > 8 | 0.876 | 13.5
24 | TOV-21G (ovary, adherent) | 0.952 | > 16 | 0.619 | 1.37 | 0.957 | > 5 | 0.577 | 0.207 | 0.985 | > 10.2 | 0.983 | > 16 | 0.984 | > 8 | 0.822 | 10.4
25 | TT2609-C02 (thyroid, adherent) | 0.373 | 0.436 | 0.89 | > 10 | 0.985 | > 5 | 0.729 | 0.59 | 0.986 | > 10.2 | 0.744 | 5.27 | 0.915 | > 8 | 0.841 | 12.3
26 | TT (thyroid, adherent) | 0.978 | > 16 | 0.955 | > 10 | 0.978 | > 5 | 0.654 | 0.396 | 0.961 | > 10.2 | 0.953 | > 16 | 0.98 | > 8 | 0.941 | > 16
27 | TUR (B-cell lymphoma, suspension) | 0.455 | 0.762 | 0.485 | 0.572 | 0.98 | > 5 | 0.602 | 0.232 | 0.397 | 0.342 | 0.745 | 4.71 | 0.92 | > 8 | 0.831 | 9.11
28 | U-118-MG (glioma, adherent) | 0.972 | > 16 | 0.792 | 5.33 | 0.984 | > 5 | 0.815 | 1.33 | 0.966 | > 10.2 | 0.934 | > 16 | 0.939 | > 8 | 0.983 | > 16
29 | U-698-M (B-cell leukaemia, suspension) | 0.861 | 13.5 | 0.7 | 2.28 | 0.959 | > 5 | 0.553 | 0.175 | 0.775 | 4.06 | 0.935 | > 16 | 0.978 | > 8 | 0.884 | > 16
